From the supplement of paper PMC3334620
In all, about 33,000 sequences were measured (“E-score (-0.5 to 0.5)”: median about -0.041, highest 2% from about 0.37 on). This is one part of the list.

Each sequence was assayed against T1, Ecm22 (UniProt Q05958) (assay: PBM E-score (8-mer binding enrichment) (E-score (-0.5 to 0.5)); higher = stronger / more preferred TF binding; most listed sequences are background and not binding sites). Conditions: protein concentration: 200 nM; construct: GST-full length.
T1 sequence: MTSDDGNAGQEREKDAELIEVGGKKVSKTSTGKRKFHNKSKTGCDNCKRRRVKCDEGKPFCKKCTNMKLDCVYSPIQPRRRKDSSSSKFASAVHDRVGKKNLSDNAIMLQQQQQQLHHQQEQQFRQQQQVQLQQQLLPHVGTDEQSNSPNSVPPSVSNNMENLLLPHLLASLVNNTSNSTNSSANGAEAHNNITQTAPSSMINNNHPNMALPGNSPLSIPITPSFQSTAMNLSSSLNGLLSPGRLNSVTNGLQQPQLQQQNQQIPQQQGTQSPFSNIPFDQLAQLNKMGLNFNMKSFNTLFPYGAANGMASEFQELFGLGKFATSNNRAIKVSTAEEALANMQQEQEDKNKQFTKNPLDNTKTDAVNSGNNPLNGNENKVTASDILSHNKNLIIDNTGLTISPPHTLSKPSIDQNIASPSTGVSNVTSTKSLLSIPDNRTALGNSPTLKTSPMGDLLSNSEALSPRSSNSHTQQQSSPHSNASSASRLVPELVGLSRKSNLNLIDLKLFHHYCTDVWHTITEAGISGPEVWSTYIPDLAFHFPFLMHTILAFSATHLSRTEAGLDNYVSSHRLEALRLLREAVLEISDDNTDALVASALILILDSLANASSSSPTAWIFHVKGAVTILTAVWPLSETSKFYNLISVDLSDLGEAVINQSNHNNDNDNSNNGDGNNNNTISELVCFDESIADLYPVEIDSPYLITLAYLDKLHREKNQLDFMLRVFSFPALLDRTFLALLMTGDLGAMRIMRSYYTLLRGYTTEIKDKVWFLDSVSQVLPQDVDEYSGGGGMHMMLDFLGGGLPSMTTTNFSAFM
Procedure, shortened: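 Each ungapped eight-base word and its reverse complement, pooled, received an E-score from the Universal PBM Analysis Suite. Underlying scans, normalised with masliner, recorded fluorescent anti-GST bound to GST-tagged yeast transcription factors. These were applied at about 100-200 nM to universal all-10-mer Agilent arrays double-stranded by primer extension.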

In order of rising “PBM E-score” value:
1. AGCTCTGC  -0.402
2. CCTGCTAG  -0.336
3. CCACTCTA  -0.304
4. CAAGTAAG  -0.302
5. CAGCCCGC  -0.297
6. AGTGACAT  -0.283
7. ATTGGCAG  -0.281
8. CAAGAGCC  -0.281
9. AAGAAAAA  -0.272
10. CACACCGG  -0.271
11. CAGGGGAC  -0.271
12. TTAGCAAA  -0.268
13. CCTAAGCC  -0.254
14. AAATTCTT  -0.244
15. GGCGTCTA  -0.243
16. ACTCCACT  -0.243
17. CCATGGCC  -0.243
18. AGGCGTCC  -0.241
19. GGACTACC  -0.24
20. TCACAAGA  -0.236
21. ACAATCAT  -0.233
22. AAGCCCAT  -0.233
23. AGATTCCT  -0.227
24. CTGCCTTC  -0.225
25. CAGTCACG  -0.224
26. ACAGCAGG  -0.222
27. CTGTGGAA  -0.22
28. GCCTTAGA  -0.218
29. CCTCAATA  -0.215
30. TCCAAAGA  -0.212
31. CTCTGAGA  -0.211
32. CCATAGAC  -0.209
33. CTGCTGGC  -0.208
34. GCATCTGA  -0.207
35. GCTGACTA  -0.205
36. CTACCAGA  -0.205
37. AGGCATTC  -0.2
38. CCTACACC  -0.2
39. CCAAACAG  -0.2
40. AGAGTTAG  -0.197
41. CCCAAGAA  -0.194
42. CCTGGTAG  -0.193
43. ACGCTGCC  -0.184
44. ACGCCCAC  -0.181
45. CACTGGGC  -0.181
46. ATTGCCCA  -0.181
47. CTGAGAAG  -0.18
48. GCAGTGCC  -0.179
49. CAAAGCTC  -0.177
50. GCGCCAGA  -0.174
51. GAGTACCA  -0.17
52. GAGTGAGA  -0.164
53. GACTCTTA  -0.162
54. GGCTCCTA  -0.159
55. GAGCGCTA  -0.155
56. CAGCGAGG  -0.141
57. CCACGCGG  -0.139
58. AATGAGTG  -0.136
59. GGTAACAC  -0.135
60. AGTCTCTC  -0.135
61. TCCATTAA  -0.131
62. AAGGCCAA  -0.129
63. CAAACCAG  -0.128
64. CTGCCAGA  -0.126
65. GGTCCTGA  -0.126
66. GTTATCCA  -0.125
67. GACCGTCC  -0.116
68. GCCAGGAA  -0.111
69. ACTAACCC  -0.109
70. AACGTAGG  -0.108
71. GAAGCATA  -0.107
72. CAAGGTGA  -0.106
73. AACATCAT  -0.104
74. GACTAGAC  -0.103
75. GACACTCA  -0.102
76. GCTATTTA  -0.0945
77. TGGAACCA  -0.0927
78. AAGAATCC  -0.0925
79. CTGTAAGC  -0.0915
80. AGTTGGGA  -0.0908
81. ATCACTAA  -0.0903
82. GATGAGAC  -0.0882
83. GACATAGA  -0.0813
84. GCGCAAGA  -0.0808
85. GACGGAGA  -0.0777
86. TTGAGAAA  -0.0766
87. ATGACCTG  -0.076
88. CACACGCA  -0.0742
89. TACCGCCA  -0.0721
90. CATGGAAA  -0.072
91. CTGATGAA  -0.0703
92. TGTACAAA  -0.0698
93. CCCATTAA  -0.0672
94. ACTCTGCC  -0.0654
95. TTAGACAA  -0.0641
96. TGTAATAA  -0.0638
97. TATCTTGA  -0.0626
98. AATTTTCA  -0.0619
99. CCGGAGCA  -0.0598
100. GAAACCAC  -0.057
101. GGTTGTGA  -0.0556
102. CTTGAACA  -0.0552
103. AATGTAGA  -0.0549
104. ATGCGGTC  -0.0512
105. CAGCAAAG  -0.0505
106. ATGACGGA  -0.0489
107. AAGCCGGA  -0.0426
108. AGTTCCAT  -0.0425
109. CGCAGCTA  -0.0418
110. CTCAAAAG  -0.0411
111. ATAGCGCA  -0.0397
112. GAGCTAGA  -0.0397
113. GCTCACCC  -0.0386
114. GGTGCATA  -0.0343
115. CTCCTAAC  -0.0295
116. AAAAGACA  -0.0279
117. CTTCACCC  -0.0276
118. AGCTTGCG  -0.0268
119. CCCGCCCC  -0.0225
120. AAATTAAT  -0.0222
121. ATGTCTTG  -0.0219
122. AATCATCA  -0.0214
123. ACGTGCAA  -0.0198
124. CCTATTGA  -0.0181
125. CGCAGCCA  -0.0169
126. ATAGCCAT  -0.0163
127. GGCGGAAC  -0.0162
128. CAATTGGC  -0.0158
129. ATATGTCA  -0.0109
130. GTCTCGAA  -0.00716
131. GCTAATCC  -0.00463
132. CTGATCGC  -0.00452
133. GAGCCGAC  -0.00336
134. GCGCTGAA  -0.00226
135. TATCTGCA  -0.00193
136. ATTCGACC  -0.00106
137. AAATATTT  -0.00064
138. AAGATGTG  0.00138
139. AATTCATA  0.00157
140. CGGCAGAA  0.00319
141. ATTCATAG  0.00436
142. CGATGGCG  0.00544
143. ACAGCTTG  0.00728
144. GCCTATAC  0.00784
145. GAAGCGCC  0.0109
146. AAACACCT  0.0166
147. AAAGTGCG  0.017
148. AAGGATGC  0.0179
149. ACCGTCCG  0.0211
150. CTTACTAA  0.022
151. CATCCAGC  0.0233
152. GCGGACCA  0.0245
153. CTACTGAG  0.0257
154. CGGGTCAG  0.0346
155. AGTGAATG  0.0364
156. AACCTGTC  0.0384
157. CTGTATAA  0.0431
158. AAACAATA  0.0442
159. TGCGCTAA  0.0517
160. TGACGCCA  0.0547
161. ACGCACTG  0.0575
162. TACAAGGA  0.0577
163. TATCGTGA  0.0607
164. AGTCATCG  0.0645
165. AGTACACC  0.0652
166. CTGTTTAC  0.0671
167. GAGTAGAC  0.0681
168. ATTACTGA  0.0728
169. ACCTCCCG  0.0728
170. AACAAAAG  0.0744
171. CAGTGGTC  0.0767
172. AGACCTAT  0.0825
173. CATATGGA  0.0838
174. TAGCTTAA  0.0865
175. AGGTGTAC  0.0881
176. CGCCTATA  0.099
177. CTTTCACC  0.105
178. ATGTAATA  0.106
179. ACTATGCA  0.108
180. GACGCAAA  0.114
181. AATCCGGT  0.114
182. CCGGTGCG  0.115
183. GGTCACGA  0.116
184. CAAGATCG  0.122
185. GAGTGGGA  0.13
186. CAAACACG  0.14
187. GTATCCAC  0.143
188. CGCGAAAG  0.144
189. CGTGTATA  0.151
190. ACGCACCG  0.157
191. CCATGCGA  0.157
192. CCCTGAAC  0.16
193. CCTTATAC  0.162
194. CCCGAACC  0.169
195. ATAGCTCG  0.173
196. CCAGTTAA  0.177
197. ACCGAACA  0.18
198. AACGTCGC  0.182
199. ACATCTCG  0.187
200. TAATATAA  0.193
201. CGCCGAAC  0.197
202. ATATACCG  0.21
203. AACACGTA  0.238
204. GTTTGCGA  0.258
205. ACCGAGAA  0.267
206. AAGCGAAG  0.271
207. CGCGTTCC  0.284
208. ATAACCGA  0.286
209. GCTTGTAC  0.289
210. TAATGCGA  0.293
211. CGTTGCGA  0.3
212. ATGCGTAC  0.3
213. TCGTGTAA  0.321
214. CGTATGCC  0.333
215. ACGACACA  0.352
216. GTTACGAA  0.404
217. AAACGATT  0.42
218. TACGATCA  0.443
219. GCCGTTCC  0.444
